# Assay results taken from PubChem BioAssay AID662 (National Center for Advancing Translational Sciences (NCATS), 2007).
# Screen size: about 71,000 compounds; about 1,800 (2.5%) were called active. This list was built around the results that the source calls inconclusive (neither active nor inactive); the mix of calls is not that of the screen. Calls come from the whole dose curve; as a rule, active = well fitted activation curve with a large enough effect in the signal ratio, with a control signal flat (not every such curve was filed as active); inconclusive = small, poorly fitted or top-dose-only effect, or effect the other way, or a change in a side signal; inactive = flat fitted curve, though single readings scatter; the % refers to the signal ratio. Potencies of inconclusive entries are doubtful fits and often do not repeat.
# Experiment: Cell signaling CRE-BLA (Fsk stim); for activity change, negative = inhibition: % of control where 0% means no effect
# Conditions: CHO CRE-bla reporter (cAMP response element driving beta-lactamase), forskolin EC10, beta-lactamase ratio; activity change, negative = inhibition: at 38.2 µM (top of the series) unless noted
# In short: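 The 460nm/530nm emission ratio after CCF4 loading defined %Activity, from which AC50 values were obtained. CRE-bla CHO cells received compound dilution series together with an EC10 level of NKH 477 for 3 hours at 37 degrees Celsius.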
# Potency is the fitted concentration of half-maximal effect; tags give direction and shape of the fitted curve.
Structure (SMILES),Potency,"activity change, negative = inhibition"
COCCOC(=O)c1[nH]c2c(c1C)C(=O)CC(c1ccco1)C2 (stereo not given),active: 10 µM,
CCOC(=O)N1CCC(NC(=O)c2cc(-c3ccc(F)cc3)[nH]c2C)CC1,,inconclusive: -11.3%
COc1cccc(Nc2ncc3nc(-c4ccccc4)c(=O)n(C[C@H]4CCCO4)c3n2)c1,"inconclusive: 10 µM [rising, partial curve]",
Nc1c2ccccc2nc2ccccc12,active: 12.6 µM,
c1ccc(C2=Nn3c(nnc3-c3ccncc3)SC2)cc1,,inconclusive: -9.89%
O=C(Nc1ccc2c(c1)OCO2)N1CCN(C/C=C/c2ccccc2)CC1,,inconclusive: -28.6%
Cc1c(C(=O)OCC(=O)c2c(N)n(CC(C)C)c(=O)n(C)c2=O)oc2ccccc12,,inconclusive: 14.3%
O/N=C1\CCCc2nnc3c(c21)CCCC3,,inconclusive: 20.7% [at 7.6 µM]
Cc1ccc(CN2C3=NCCCN3c3ccccc32)cc1,,inconclusive: -2.93%
Cc1cccc(-n2c(SCC(=O)Nc3ccc4c(c3)OCO4)nnc2-c2ccoc2C)c1,,inactive: 27.6%
N#Cc1c(N)sc2c1CCCCCC2,"inconclusive: 10 µM [rising, partial curve]",
COc1ccc(C2=NOC(C(=O)Nc3cc(Br)ccc3O)C2)cc1OC (stereo not given),active: 15.8 µM,
CN1CCC(=C2c3ccccc3Sc3ccccc32)CC1,,inconclusive: -13.1% [at 17.1 µM]
CCNc1ncc2nc(-c3ccc(Cl)cc3)c(=O)n(Cc3cccs3)c2n1,"inconclusive: 3.16 µM [rising, partial curve]",
COC(=O)[C@@H]1C[C@H]1[C@@H](NC(=O)c1cccnc1)c1ccccc1,,inactive: 1.99%
COc1ccccc1CNc1ncncc1-c1cccnc1,"inconclusive: 6.31 µM [rising, partial curve]",
O=C(c1ccccc1)C1CCc2occc2C1=O (stereo not given),,inactive: -2.2%
Cc1ccc2[nH]c3c(c2c1)CCc1cn[nH]c1-3,"inconclusive: 3.16 µM [falling, single point]",
NC(=O)CSc1nnc(-c2ccc(O)cc2)n1Cc1ccco1,,inactive: -8.52%
O=C(NCc1ccc2c(c1)OCO2)c1cccc(N2CCCC2=O)c1,,inconclusive: -20.8%
Nc1nnc(-c2cc3ccccc3oc2=O)s1,,inconclusive: 9.77%
c1ccc(OCCN2C3=NCCN3c3ccccc32)cc1,,inactive: -0.713%
COc1cccc2cc(C(=O)Nc3cccc(C)n3)c(=O)oc12,,inactive: -0.939%
Cc1ccc(-n2c(SCC(=O)NCC3CCCO3)nc3c(c2=O)SCC3)cc1 (stereo not given),,inconclusive: 4.31%
Cc1noc(C)c1CSc1nc2sc(C)c(C)c2c(=O)n1-c1ccccc1,"inconclusive: 3.16 µM [rising, full curve]",
